Experimental data reported in the supplement of paper PMC4967469.
IC50 is the fitted dose that halves viability relative to control wells, and lower means more sensitive; where the fit passes the top or lowest dose, that dose stands as a limit. The AUC spans the tested range (256-fold, ending at the top dose) of the same fit; the more sensitive the line, the further below 1. For some of these results: A top dose marked as inferred comes from the curve model; the source does not state it. For some of these results: An entry number marks a drug with two screens in the source, which often give different values.

Key:
Test in all cases: Viability of human cancer cell lines after 72 h of drug (GDSC screen)
[1] = compound: C#Cc1cccc(Nc2ncnc3cc(OC)c(OCCCCCCC(=O)NO)cc23)c1 [CUDC-101]; settings: top dose 5.12 µM; top dose inferred
Experimental: (§1)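 Human cancer cell lines in 384-well plates, medium with 10% serum, drug for 72 h over a 256-fold dose range (nine 2-fold or five 4-fold steps up to the top dose). Adherent lines were fixed and stained with the nucleic acid dye Syto60, suspension lines read with resazurin; signal relative to control wells, capped at 0 and 100%. One two-parameter sigmoid per drug and line, fitted in a mixed model over all curves with the slope shared within a line.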

[2] = compound: CC(C)(C)c1cc(NC(=O)Nc2ccc(-c3cn4c(n3)sc3cc(OCCN5CCOCC5)ccc34)cc2)no1 [AC220]; settings: top dose 1.024 µM; top dose inferred
Experimental: as §1

[3] = compound: COc1cc(F)c(F)c(Nc2ccc(I)cc2F)c1NS(=O)(=O)C1(C[C@H](O)CO)CC1 [RDEA119]; settings: top dose 5 µM, top dose inferred
Experimental: as §1

[4] = compound: Fc1cc(-c2ccnc(Nc3ccc(-n4cnc(N5CCOCC5)n4)cc3)n2)cc(N2CCOCC2)c1 [JNK-9L]; settings: top dose 5.12 µM; top dose inferred
Experimental: as §1

[5] = compound: NCC(=O)Nc1ccc(-n2nc(C(F)(F)F)cc2-c2ccc3c(ccc4ccccc43)c2)cc1 [OSU-03012]; settings: top dose 16 µM; top dose inferred
Experimental: as §1

[6] = compound: O=c1[nH]cc(F)c(=O)[nH]1 [5-Fluorouracil]; settings: top dose 32 µM; top dose inferred
Experimental: as §1

[7] = compound: OC[C@H](Cc1ccccc1)Nc1nc(Oc2ccc3c(c2)CCC3)nc2c1ncn2Cc1ccc(-c2ccccc2)cc1 [QS11]; settings: top dose 10.24 µM
Experimental: as §1

| Cell Line | AUC [1] | IC50 [1] | AUC [2] | IC50 [2] | AUC ([3]; screen: GDSC drug entry 1014) | IC50 ([3]; screen: GDSC drug entry 1014) | AUC ([3]; screen: GDSC drug entry 1526) | IC50 ([3]; screen: GDSC drug entry 1526) | AUC [4] | IC50 [4] | AUC [5] | IC50 [5] | AUC [6] | IC50 [6] | AUC [7] | IC50 [7] |
| --- | --- | --- | --- | --- | --- | --- | --- | --- | --- | --- | --- | --- | --- | --- | --- | --- |
| TE-5 (oesophagus, adherent) | 0.947 | > 5120 nM | 0.984 | > 1020 nM | 0.842 | 4320 nM | 0.799 | 2820 nM | 0.551 | 450 nM | 0.732 | 5140 nM | 0.873 | > 32000 nM | 0.91 | > 10200 nM |
| TE-6 (oesophagus, adherent) | 0.885 | > 5120 nM | 0.985 | > 1020 nM | 0.902 | > 5000 nM | 0.981 | > 5000 nM | 0.697 | 1260 nM | 0.695 | 3910 nM | 0.653 | 5750 nM | 0.963 | > 10200 nM |
| TE-8 (oesophagus, adherent) | 0.974 | > 5120 nM | 0.985 | > 1020 nM | 0.699 | 1190 nM | 0.783 | 2270 nM | 0.6 | 614 nM | 0.444 | 695 nM | 0.732 | 9710 nM | 0.745 | 3430 nM |
| TE-9 (oesophagus, adherent) | 0.976 | > 5120 nM | 0.987 | > 1020 nM | 0.944 | > 5000 nM | 0.914 | > 5000 nM | 0.345 | 116 nM | 0.666 | 2950 nM | 0.914 | > 32000 nM | 0.921 | > 10200 nM |
| TE-10 (oesophagus, adherent) | 0.903 | > 5120 nM | 0.988 | > 1020 nM | 0.884 | > 5000 nM | 0.798 | 2330 nM | 0.512 | 346 nM | 0.634 | 2330 nM | 0.865 | 27400 nM | 0.845 | 7170 nM |
| TE-11 (oesophagus, adherent) | 0.916 | > 5120 nM | 0.99 | > 1020 nM | 0.884 | 4610 nM | 0.936 | > 5000 nM | 0.596 | 573 nM | 0.76 | 5180 nM | 0.946 | > 32000 nM | 0.99 | > 10200 nM |
| TE-12 (oesophagus, suspension) | 0.911 | > 5120 nM | 0.983 | > 1020 nM | 0.695 | 1250 nM | 0.861 | > 5000 nM | 0.641 | 857 nM | 0.585 | 1800 nM | 0.877 | > 32000 nM | 0.923 | > 10200 nM |
| TE-15 (oesophagus, suspension) | 0.304 | 83.5 nM | 0.974 | > 1020 nM | 0.372 | 132 nM | 0.918 | > 5000 nM | 0.562 | 484 nM | 0.627 | 2360 nM | 0.748 | 11500 nM | 0.92 | > 10200 nM |
| TGBC1TKB (biliary tract, adherent) | 0.625 | 705 nM | 0.989 | > 1020 nM | 0.87 | 4620 nM | 0.906 | > 5000 nM | 0.747 | 1630 nM | 0.839 | 10800 nM | 0.98 | > 32000 nM | 0.989 | > 10200 nM |
| TGBC11TKB (stomach, adherent) | 0.804 | 2210 nM | 0.992 | > 1020 nM | 0.692 | 1000 nM | 0.876 | 3950 nM | 0.711 | 1160 nM | 0.87 | 11900 nM | 0.946 | > 32000 nM | 0.953 | > 10200 nM |
| TGBC24TKB (biliary tract, adherent) | 0.654 | 831 nM | 0.933 | > 1020 nM |  |  | 0.852 | 3470 nM | 0.654 | 828 nM | 0.882 | 15100 nM | 0.981 | > 32000 nM | 0.99 | > 10200 nM |
| TGW (neuroblastoma, adherent) | 0.384 | 161 nM | 0.992 | > 1020 nM | 0.899 | 4750 nM | 0.976 | > 5000 nM | 0.748 | 1450 nM | 0.788 | 5970 nM | 0.789 | 12000 nM | 0.965 | > 10200 nM |
| TK (B-cell lymphoma, suspension) | 0.458 | 249 nM | 0.989 | > 1020 nM | 0.989 | > 5000 nM | 0.976 | > 5000 nM | 0.667 | 888 nM | 0.694 | 3320 nM | 0.78 | 11900 nM | 0.89 | 9990 nM |
| TMK-1 (stomach, adherent) | 0.777 | 2180 nM | 0.985 | > 1020 nM | 0.499 | 310 nM |  |  | 0.497 | 313 nM | 0.819 | 9790 nM | 0.958 | > 32000 nM | 0.909 | > 10200 nM |
| TOV-21G (ovary, adherent) | 0.811 | 3010 nM | 0.984 | > 1020 nM | 0.789 | 2420 nM | 0.818 | 3140 nM | 0.799 | 2710 nM | 0.812 | 9490 nM | 0.957 | > 32000 nM | 0.734 | 3180 nM |
| TOV-112D (ovary, adherent) | 0.519 | 361 nM | 0.907 | > 1020 nM | 0.945 | > 5000 nM | 0.839 | 3440 nM | 0.498 | 316 nM | 0.511 | 1070 nM | 0.817 | 18100 nM | 0.83 | 6490 nM |
| TT2609-C02 (thyroid, adherent) | 0.534 | 400 nM | 0.985 | > 1020 nM | 0.336 | 105 nM | 0.717 | 1350 nM | 0.438 | 214 nM | 0.473 | 840 nM | 0.821 | 20100 nM | 0.895 | > 10200 nM |
